Laboratory results as given in the supplement of paper PMC9513381.

B1: B666 (protein)
chain 1: EVQLVQSGAEVKKPGESLKISCKGSGYQFTRNWIAWVRQMPGKGLEWMGTIDPGDSETRYSPSFQGQVTISVDKSISTAYLQWSSLKASDTAKYFCARLFCGGDCPLDSWGQGTLVTVSS
chain 2: DIQMTQSPSTLSASVGDRVTITCRASQSISTWLAWYQQKPGRAPKLLIYDASNLESGVPSRFSGSGSGTEFTLTISSLQPDDFATYYCQQYNSYWTFGQGTKVEVK
B2: B664 (protein)
chain 1: QVQLVESGGGVVQPGRSLRLSCAASGFTSSLYTMHWVRQAPGKGLEWVAVLLYDGNNKYYADSVKGRFTISRDNPKNTLYLQMNSLRAEDTAIYFCARAATVGAGSDDHWFAPWGQGTLVTVSS
chain 2: QSVLTQPPSVSGAPGQRVTISCAGGSSNIGAFYDVHWYQLLPRTAPKLLIFANTNRPSGVPDRFSGSKSGTSASLAITGLQAEDEATYYCQSYDSSLSGWVFGGGTKLTVL
B3: B663 (protein)
chain 1: QVQLQESGPGLVKPSQTLSLTCAVSGGSISSGYYSWSWIRQPAGKGLEWIGFIDDSGSTHYNPSLKRRVTISMDTSKNQFSLKLSSVTAADTAVYYCARDNWNDQRPDYYGMDVWGQGTTVTVSS
chain 2: SYELTQPPSVSVSPGQTARITCSGDALPKQYAYWYQQKPGQAPLLVIYKDTERPSGIPERFSGSSSGTTVTLTISGVQAEDEADYYCQSADSSLVVFGGGTKLTVL
B4: B2108 (protein)
chain 1: EVQLVESGGALQQPGRSLTLSCAASGFTFEDYAMHWVRQAPGKGLEWVSGITWTGGMIDYADSVKGRFIISRDNAKKSLYLHMRGLRPEDTALYYCARGSRSGSYHLRDHFYGMDVWGQGTTVTVSS
chain 2: DIQLTQSPSSLSASVGDRVTITCRASQNVNYYLNWYQQRPGKAPELLIYGASSLQSGVPSRFSGGGSETDFTLTISSLQPEDFATYYCQQSYDLPPTFGQGTRLEIK
B5: B667 (protein)
chain 1: EVQLVQSGAEIKRPGESLRISCQGSGYSLTNSWIAWVRQMPGKGLEWMGVIYAADSDTRYSPSFQGHVTISADKSISTAYLQWSSLKASDTAMYYCVRLSSNWYWGSAYWGQGTLVTVSS
chain 2: DIQMTQSPSSLSASVGDRVTITCQASQDISNYLNWYQQKPGKAPKLLIYDASNLETGVPSRFSGSGSGTDFSFTISSLQPEDIATYYCQQYNNLPPTFGGGTKVEIK
B6: B668 (protein)
chain 1: EVQLVQSGAEVKKPGESLKISCKGSGYIFNRNWIAWVRQMPGKGLEWMGVIDPGDSETRYSPSFQGQVTISVDKSISTAYLQWSSLKASDTAMYYCARQLVGGDSSFDFWGQGTLVTVSS
chain 2: DIQMTQSPSTLSASVGDRVTITCRASQSISSWLAWYQQKPGKAPKLLIYDASNLETGVPLRFSGSGSGTEFTLTISSLQPDDFATYYCQQYNSYPRTFGQGTTLEIK
B7: B662 (protein)
chain 1: QVQLVQSGAEVKKPGASVKVSCKPSGYSFTDYYIHWVRQAPGQGLEWMGWINPNSGGTNYAQKFQGWVTMTRDMSSSTAYMEMSRLKSDDTAVYYCARGTATTNRYYHYGMDVWGQGTTVIVSS
chain 2: QAVVTQEPSLTVSPGGTVTLTCGSSTGAVTSGHYPYWFQQKPGQAPRTLIFDTSNKHSWTPARFSGSLLGDKAALTLSGAQPDDEAEYYCLLSYSGAQVFGGGTKLTVL

Columns and labels:
[1] = target: SARS-CoV-2 Wuhan-Hu-1 spike pseudovirus; assay: pseudovirus neutralization IC50; higher = weaker neutralization
Procedure: (§1)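 Single-round luciferase reporter pseudovirus mixed with antibody dilutions and put on 293T-ACE2 cells for 48 h; signal relative to no-antibody wells, four-parameter fit.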

[2] = target: SARS-CoV-2 Wuhan-Hu-1 spike pseudovirus; assay: pseudovirus neutralization IC90; higher = weaker neutralization
Procedure: as §1

[3] = target: SARS-CoV-2 Delta (B.1.617.2) spike RBD; assay: ELISA binding EC50; higher = weaker binding; ELISA of recombinant human antibody on coated antigen, from 10 µg/ml in fourfold dilutions; four-parameter fit.
[4] = target: SARS-CoV-2 Omicron BA.1 spike protein; assay: as above
[5] = target: SARS-CoV-2 Wuhan-Hu-1 spike receptor-binding domain; assay: as above

Binder	pseudovirus neutralization IC50 [1] [ng/mL]	pseudovirus neutralization IC90 [2] [ng/mL]	ELISA binding EC50 [3] [ng/mL]	ELISA binding EC50 [4] [ng/mL]	ELISA binding EC50 [5] [ng/mL]
B1	> 1000	> 1000	8.27	3.48	2.6
B2	26.4	439	62	35.1	2.6
B3	> 1000	> 1000	3.6	10.2	1.43
B4	31.5	367	> 1000	318	1.64
B5	> 1000	> 1000	5.08	2.97	2.66
B6	> 1000	> 1000	4.04	3.72	0.865
B7	3.47	25	9.44	> 1000	1.33

Recombinant human monoclonal antibodies (heavy:light variable regions). ELISA EC50 on the named antigen, from 10 µg/ml down; IC50 / IC90 against spike pseudovirus on 293T-ACE2 cells, 48 h; lower = stronger. Calls: IC50 above 1,000 ng/ml = non-neutralizing; EC50 above 1,000 ng/ml = non-binder. The source prints 1000 for neutralization that was not reached; it is given as >1000 ng/ml. Only binders of the Wuhan-Hu-1 domain have neutralization values.
